The values below come from publication PMC4336329 (PLoS ONE, 2015).

SMILES strings stand for the structures. Screen size: about 310,000 compounds; about 2,200 (0.71%) showed an effect of 50% or more. Effects have a minus sign here. This is one part of the list.

The target of this experiment is human ether-à-go-go-related gene (hERG) potassium channel (human, UniProt Q12809). Kind of experiment: primary screen, population patch clamp on CHO cells stably expressing hERG.
human ether-à-go-go-related gene (hERG) potassium channel, sequence (Q12809 whole entry, looked up): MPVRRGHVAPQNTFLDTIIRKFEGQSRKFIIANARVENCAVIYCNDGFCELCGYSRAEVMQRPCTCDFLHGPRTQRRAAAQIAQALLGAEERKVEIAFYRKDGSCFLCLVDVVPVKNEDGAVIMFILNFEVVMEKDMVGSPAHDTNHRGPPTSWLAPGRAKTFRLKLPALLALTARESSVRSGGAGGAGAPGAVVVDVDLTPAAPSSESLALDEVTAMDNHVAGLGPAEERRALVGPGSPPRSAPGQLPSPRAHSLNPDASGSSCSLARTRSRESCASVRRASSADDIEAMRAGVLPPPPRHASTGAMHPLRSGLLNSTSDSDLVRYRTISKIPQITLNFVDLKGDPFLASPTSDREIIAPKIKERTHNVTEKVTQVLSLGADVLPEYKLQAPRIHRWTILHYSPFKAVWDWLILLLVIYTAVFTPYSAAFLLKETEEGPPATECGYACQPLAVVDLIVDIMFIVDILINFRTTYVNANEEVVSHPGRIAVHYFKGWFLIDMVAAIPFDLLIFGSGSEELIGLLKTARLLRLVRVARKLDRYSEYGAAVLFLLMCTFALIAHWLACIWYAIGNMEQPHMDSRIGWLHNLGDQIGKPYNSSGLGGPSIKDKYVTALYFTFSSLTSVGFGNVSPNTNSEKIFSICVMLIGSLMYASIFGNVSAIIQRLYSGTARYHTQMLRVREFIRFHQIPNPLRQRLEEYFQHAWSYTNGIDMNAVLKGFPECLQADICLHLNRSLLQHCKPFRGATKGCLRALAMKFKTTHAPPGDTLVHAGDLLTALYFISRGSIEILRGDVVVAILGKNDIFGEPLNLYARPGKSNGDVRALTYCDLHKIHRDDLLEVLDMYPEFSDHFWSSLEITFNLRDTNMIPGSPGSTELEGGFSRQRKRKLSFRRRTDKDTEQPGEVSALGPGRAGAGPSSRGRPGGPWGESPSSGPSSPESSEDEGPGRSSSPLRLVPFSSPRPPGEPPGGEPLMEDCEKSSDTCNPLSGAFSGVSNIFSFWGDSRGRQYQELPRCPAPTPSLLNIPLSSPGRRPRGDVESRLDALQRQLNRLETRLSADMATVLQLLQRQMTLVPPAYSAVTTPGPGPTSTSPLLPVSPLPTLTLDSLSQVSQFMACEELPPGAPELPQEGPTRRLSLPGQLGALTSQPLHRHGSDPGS
As to `CCc1cc(=O)oc2c(CN3CCN(C)CC3)c(O)c(Cl)cc12`, the “hERG current change (%, negative = inhibition) at 1uM” value was determined as 8.07%. In the case of `CN(C)c1ccc(C(C(=O)NC2CCCC2)N(Cc2cccnc2)C(=O)c2snc(C(N)=O)c2N)cc1` (stereo not drawn), the “hERG current change (%, negative = inhibition) at 1uM” value was 11%. For the compound `CC1(C)CC2CC(C)(CN2S(=O)(=O)c2cccc(C(=O)O)c2)C1` (stereo not drawn), the “hERG current change (%, negative = inhibition) at 1uM” value is reported as -2.51%.

With `C=C(C)CN(CC)C(=O)Cn1cnc2c(oc3ccccc32)c1=O`, the “hERG current change (%, negative = inhibition) at 1uM” value is recorded as 9.64%. Turning to `CCOc1ccc(S(=O)(=O)NCCC(=O)NCc2ccco2)cc1`, the “hERG current change (%, negative = inhibition) at 1uM” value turned out to be 5.35%. In the case of `COc1ccc(-c2nn(C)c(=O)c3ccccc23)cc1CNS(C)(=O)=O`, the “hERG current change (%, negative = inhibition) at 1uM” value was 9.98%. For `CCC(C)(C(=O)NC1CCCC1)N(C)C(=O)Cc1c[nH]c2ccccc12` (stereo not drawn) the value was 11.3%; for `COC(=O)c1ccccc1NC(=O)CN1C(=O)c2ccccc2C1=O`, 7.69%. As for `O=C(COC(=O)/C=C/c1ccc(Br)o1)NCCCN1CCCC1=O`, the figure is -5.35%; as for `CCN1CCCC(NC(=O)c2cc([N+](=O)[O-])ccc2OC)C1.Cl.O` (stereo not drawn), 4.49%; as for `Cc1nnc(-c2cnn(C)c2N)n1Cc1ccccc1`, -6.77%. As for `O=C(CN1CCOCC1)Nc1ccc(C2CCCCC2)cc1`, the “hERG current change (%, negative = inhibition) at 1uM” value worked out at 1.99%. `CC(=O)c1cccc(NC(=O)N2CCCC2C(=O)Nc2cccc(C)c2)c1` (stereo not drawn): the “hERG current change (%, negative = inhibition) at 1uM” value was -1.62%. For `COc1cc(N/C=C2\CC(=O)NC(C)=C2C#N)cc(OC)c1OC` the value was 23%; for `N#CC1=C(N)OC2=C(C(=O)CC(c3ccccc3)C2)C1c1cccnc1` (stereo not drawn), 3.41%.

As for `CN(C)C(=O)CSc1nnc(CCCCCNC(=O)OC(C)(C)C)o1`, the “hERG current change (%, negative = inhibition) at 1uM” value was determined as 3.29%. `COc1cccc(NC(=O)CCN2CCN(C)CC2)c1`: the “hERG current change (%, negative = inhibition) at 1uM” value is recorded as 3.91%. For `O=c1c2ccccc2nc(COc2ccccc2)n1/N=C/c1ccc(O)cc1O` the value was 36%; for `CCOC(=O)Cc1csc(NC(=S)NC(=O)CC(C)C)n1`, 10.5%; for `COc1ccc(CCNC(=O)C(=O)NCc2ccccc2C)cc1OC`, 3.69%. Consider `COc1ccc(CCN2CC(C(=O)NCCc3ccccc3C(F)(F)F)CCC2=O)cc1` (stereo not drawn), for which the “hERG current change (%, negative = inhibition) at 1uM” value is -10.3%. Take `CC(C)(C)OC(=O)N1CCC(c2c(C(=O)N3CCN(C4CCCCC4)CC3)cnn2-c2ccccc2)CC1`: the “hERG current change (%, negative = inhibition) at 1uM” value is recorded as -6.43%.

For `CCOc1cc(C(=O)Nc2cc(OC)cc(OC)c2)ccc1OCC(=O)N1CCOCC1`, the “hERG current change (%, negative = inhibition) at 1uM” value was 7.59%. `COC(=O)C1=C(NC(C)=O)CCS1`: the “hERG current change (%, negative = inhibition) at 1uM” value amounted to 16.6%. For `O=C(O)c1ccc(/C=C2\SC(=Nc3ccccc3)N(c3ccccc3)C2=O)cc1` the value was 17%.

In the case of `Cc1ccc(NC(=O)C(C)OC(=O)c2ccc(Cl)nc2)cc1S(=O)(=O)N1CCOCC1` (stereo not drawn), the “hERG current change (%, negative = inhibition) at 1uM” value amounted to 12.2%. For `CC(C)(C)c1ccccc1OCCCCCNCCO` the value was 10.7%. For `O=C(O)C(=O)O.O=[N+]([O-])c1ccc(CNCCc2ccccc2)cc1` the value was -15.5%; for `CN(C(=O)CSc1ncnc2sccc12)C1CCCCC1`, 3.66%; for `FC(F)Oc1ccc(NC(=S)NCc2ccco2)cc1Cl`, 18.5%. Consider `COc1ccc(-n2c(Cc3cccn3C)nnc2SCC(=O)Nc2ccc(C)cc2)cc1`, for which the “hERG current change (%, negative = inhibition) at 1uM” value was -3.12%. For `O=[N+]([O-])c1ccc(-c2nc(NCc3cccnc3)c3ccccc3n2)cc1` the value was 13.9%; for `Cc1cc(=O)n2nc(N3CCC(C(=O)NCc4ccccc4F)CC3)sc2n1`, 9.76%; for `COc1cc(/C=N/NC(=O)c2cccc(C(=O)N/N=C/c3ccc(O)c(OC)c3)n2)ccc1O`, 13.6%.

Turning to `COc1cc(/C=N/NC(=O)c2ccncc2)ccc1OC(=O)c1cc(OC)c(OC)c(OC)c1`, the “hERG current change (%, negative = inhibition) at 1uM” value amounted to 9.97%. With `O=C(N/N=C\c1cc(Br)cs1)c1ccncc1`, the “hERG current change (%, negative = inhibition) at 1uM” value is listed as 8.06%.

As to `CC(C)(C)OC(=O)N1CCN(C(=O)c2ncn(Cc3ccccc3)c2C(=O)N2CCN(C(=O)OC(C)(C)C)CC2)CC1`, the “hERG current change (%, negative = inhibition) at 1uM” value was 17.2%. Turning to `C[C@H](NC(=O)c1ccco1)C(=O)NC1CCCCCC1`, the “hERG current change (%, negative = inhibition) at 1uM” value came to 0.541%. Consider `Cc1nnsc1Sc1ccccc1`, for which the “hERG current change (%, negative = inhibition) at 1uM” value is 9.07%.

On to `CCCCC(CC(O)COCC(C)C)C(=O)NN` (stereo not drawn), for which the “hERG current change (%, negative = inhibition) at 1uM” value is 7.76%. For `COc1cc(SC)ccc1C(=O)Nc1ccc2ncccc2c1` the value was 3.49%; for `O=C(CN1CCCc2ccccc21)Nc1cc(S(=O)(=O)N2CCCC2)ccc1Cl`, -7.37%.

Consider `Cn1cc([N+](=O)[O-])c(C(=O)n2cccn2)n1`, for which the “hERG current change (%, negative = inhibition) at 1uM” value was 14.4%. Consider `Cc1nn(C(C)C(=O)O)c(=O)c2ccccc12` (stereo not drawn), for which the “hERG current change (%, negative = inhibition) at 1uM” value turned out to be 15.6%.

For `CCOC(=O)c1c(NC(=O)CSc2ccccc2C(=O)O)sc(C)c1C`, the “hERG current change (%, negative = inhibition) at 1uM” value was 12.3%. As for `O=C(Nc1ccccc1)NC1(C(=O)NCc2ccco2)CCCCC1`, the figure is 11.4%. Consider `O=C1CCc2cc(S(=O)(=O)N3CCCC3C(=O)N3CCN(c4ccccc4)CC3)ccc2N1` (stereo not drawn), for which the “hERG current change (%, negative = inhibition) at 1uM” value is on record as -6.02%. For the compound `CCOC(=O)C1CCN(S(=O)(=O)c2ccc(OC)c(OC)c2)CC1`, the “hERG current change (%, negative = inhibition) at 1uM” value is recorded as 6.75%. As for `Cc1ccc(C)c(N(C(=O)CNC(=O)c2ccco2)C(C(=O)NC2CCCCC2)c2cccnc2)c1` (stereo not drawn), the figure is 11.6%. For the compound `COc1cc(C#N)ccc1OCC(=O)N1CCc2ccccc2C1`, the “hERG current change (%, negative = inhibition) at 1uM” value was -23.2%. As for `Cn1cc2c(=O)n(/N=C/c3ccccc3)cnc2n1`, the figure is -0.636%. As for `NS(=O)(=O)c1ccc2nc(NC(=O)c3ccncc3)sc2c1`, the figure is 12%; as for `CC(C)C(C(=O)Nc1cccnc1)N1C(=O)c2ccccc2C1=O` (stereo not drawn), -2.47%; as for `N#C/C(=C\c1ccc(Cl)cc1)C(=O)Nc1cccnc1`, 11.9%. In the case of `CCOc1ccc(Nc2nc(N)c([N+](=O)[O-])c(N3CCN(C)CC3)n2)cc1`, the “hERG current change (%, negative = inhibition) at 1uM” value was -6.26%. `CCOC(=O)N1CCN(C(=O)c2ccc(OCC)c(OCC)c2)CC1`: the “hERG current change (%, negative = inhibition) at 1uM” value is listed as 6.86%. `CC1CCCN(CC(=O)N2c3ccccc3Sc3ccccc32)C1` (stereo not drawn): the “hERG current change (%, negative = inhibition) at 1uM” value is on record as 14.9%. As for `Cn1c(SCc2ccccc2F)nc2cccnc21`, the figure is 2.5%; as for `COc1cc(/C=C/C(=O)O)cc(S(=O)(=O)Nc2ccc3c(c2)CCC3)c1OC`, 17.6%. As for `Cc1ccc(C(=O)Nc2nnc(-c3ccco3)o2)cc1C`, the figure is 7.58%; as for `Cc1cc(C(C)(C)C)c(O)c(C(C)(C)C)c1`, 17.1%. Turning to `CN(C)c1ccc(/C=N/NC(=O)CN2CCCCC2)cc1Br`, the “hERG current change (%, negative = inhibition) at 1uM” value is recorded as 4.32%. Regarding `CC(=O)Nc1ccc(NC(=O)/C(=C/c2ccco2)NC(=O)c2ccccc2)cc1`, the “hERG current change (%, negative = inhibition) at 1uM” value is listed as 4.86%. `CCCn1nnc(NC(=O)c2sc3ccccc3c2Cl)n1`: the “hERG current change (%, negative = inhibition) at 1uM” value worked out at 3.97%. For `CC(=O)c1sc(=S)n(Cc2ccccc2)c1C` the value was 3.98%; for `COCCn1c(-c2ccc(Br)cc2)nc2oc3cc(OC)ccc3c(=O)c2c1=O`, 8.33%; for `Cc1ccc(/C=N/N2CCN(c3ccccc3)CC2)cc1`, 4%. As for `Cc1cccc(Nc2nnc(SCC(=O)Nc3cccnc3Cl)s2)c1`, the figure is 5.55%; as for `COc1ccc(-c2cnnc(N/N=C/c3ccc(O)c(O)c3)n2)cc1`, 3.84%; as for `Cc1ccc(N(C(=O)Nc2ccccc2)C2=NCC(C)S2)cc1` (stereo not drawn), -12.7%. As for `OCC(CO)(CO)NCC(O)CN1c2ccccc2Sc2ccccc21` (stereo not drawn), the figure is 2.15%; as for `O=C(Nc1ccnn1C1CCN(C(=O)c2ccc(C(F)(F)F)cc2)CC1)C1CC1`, -16.5%. With `Cc1ccc(C2=NN(Cc3nnc(-c4ccccc4)o3)C(=O)SC2)cc1`, the “hERG current change (%, negative = inhibition) at 1uM” value is reported as 0.116%.

With `Cc1ccc(C(=O)COC(=O)CNS(=O)(=O)c2ccc(C)cc2)cc1`, the “hERG current change (%, negative = inhibition) at 1uM” value was 14.9%.

`Cc1cc(=O)oc2c3c(ccc12)OC/C3=N/N`: the “hERG current change (%, negative = inhibition) at 1uM” value was 16.7%. As to `CCN(CC)c1ccc(Nc2cc3n(c(=O)n2)CCc2cc(OC)c(OC)cc2-3)cc1`, the “hERG current change (%, negative = inhibition) at 1uM” value is on record as -7.6%. As for `COc1ccc(/C=C/C(=O)O)cc1S(=O)(=O)N1CCCc2ccccc21`, the figure is 14.9%.

With `COc1cccc(OCCNS(=O)(=O)c2cccc([N+](=O)[O-])c2)c1`, the “hERG current change (%, negative = inhibition) at 1uM” value was 10.5%. For `Cc1ccccc1C(=O)N1CCCC(N2CCN(Cc3ccc4c(c3)OCO4)CC2)C1` (stereo not drawn) the value was 4.56%; for `CC(O)(CS(=O)(=O)Cc1cccc(C(F)(F)F)c1)C(=O)Nc1cccc(C(F)(F)F)c1` (stereo not drawn), 0.351%; for `N/C(=N\OC(=O)CCC1CCCC1)c1cccnc1`, 12.1%. For `CC1Sc2ccc(S(=O)(=O)NCCc3ccc(S(N)(=O)=O)cc3)cc2NC1=O` (stereo not drawn) the value was 15.2%; for `CCCc1nnc(NC(=O)C2CCCO2)s1` (stereo not drawn), 7.64%; for `Cn1cnc([N+](=O)[O-])c1NC(C)(C)C`, 4.03%. In the case of `COc1ccc(C(=O)c2c[nH]cc2-c2ccccc2)cc1`, the “hERG current change (%, negative = inhibition) at 1uM” value is 22.5%.

`Cn1c(-c2ccccc2)cnc1SCC(=O)N1CCCc2ccccc21`: the “hERG current change (%, negative = inhibition) at 1uM” value was determined as 5.41%. For `CC1CCC(NC(=O)C2CCC(CNc3c(N4CCCCC4)c(=O)c3=O)CC2)CC1` (stereo not drawn) the value was 7.8%; for `CCCOc1ccc(OCC(=O)c2[nH]c(C)c(C(C)=O)c2C)cc1`, -0.788%; for `N#Cc1cc(C(=O)c2ccccc2OCC(=O)Nc2ccccc2)cn(C2CCCCC2)c1=O`, 13.1%. On to `Cc1ccn2c(C(=O)CSc3ccc(Cl)cc3)c(C)nc2c1`, for which the “hERG current change (%, negative = inhibition) at 1uM” value is recorded as 13.5%.
